Measured values: PubChem BioAssay AID686979 (National Center for Advancing Translational Sciences (NCATS), 2013)
Hit rate of the full screen: of about 420,000 compounds, about 50,000 (12%) were called active. The inconclusive results got no clear call from the source; some entries with a clear call stand among them for comparison. The call rests on the fitted dose curve; in most records, active means well fitted inhibition curve with a large enough effect; inconclusive means small, poorly fitted or top-dose-only effect; inactive means flat fitted curve, though single readings scatter. Potencies of inconclusive entries are left out as doubtful fits.

Test: qHTS for Inhibitors of human tyrosyl-DNA phosphodiesterase 1 (TDP1): qHTS in cells in presence of CPT; further: nearly all actives have a fitted effect of over 55% in size
Conditions: chicken DT40 Tdp1-/-;hTDP1 cells + 20 nM CPT, ATP luminescence, 48 h; activity change, negative = growth inhibition: at 46.2 µM (top of the series) unless noted
Method in brief: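 Cell growth measured by CellTiter-Glo luminescence after a minimum 48 h, 37 C compound exposure with 20 nM CPT in Tdp1-knockout DT40 cells stably expressing hTDP1, seeded 400/well; qHTS titration format.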
On the % scale 0 is the no-effect control and ±100 the full control effect; potency means the concentration at half of the fitted maximal effect; tags describe the fitted curve by direction and shape.

SMILES | activity change, negative = growth inhibition | Potency
CCC(C(=O)NC(C)(C)C)N(Cc1ccc(OC)cc1)C(=O)c1snc(C(N)=O)c1N (stereo not drawn) | inactive: -23.4% | –
Fc1ccc2c(c1)-c1nc(-c3ccccc3)cc(-c3ccccc3)c1CO2 | – | inconclusive [inhibitor, partial curve]
O=S1(=O)CC(N2CCCCC2)CN1CCc1ccccc1 (stereo not drawn) | – | inconclusive [inhibitor, single point]
CCN(C(=O)COC(=O)/C=C/c1ccc(O)c(OC)c1)C1CCS(=O)(=O)C1 (stereo not drawn) | inactive: 9.03% | –
C=C(C)c1cc2c(ccc3ccc(=O)oc32)o1 | inactive: 31.1% | –
O=[N+]([O-])c1ccc(-c2ccc(/C=N/Nc3nc(N4CCCCC4)nc(N4CCCCC4)n3)o2)cc1 | – | inconclusive [inhibitor, single point]
COc1ccc(Nc2nc(N3CCN(S(C)(=O)=O)CC3)nc3ccccc23)c(OC)c1 | – | inconclusive [inhibitor, partial curve]
O=C1OC(c2cccs2)=N/C1=C\c1ccc(-c2ccccc2Cl)o1 | – | inconclusive [inhibitor, single point]
CN(CC(=O)Nc1ccccc1Br)C(=O)c1cccnc1Nc1cccc(C(F)(F)F)c1 | – | inconclusive [inhibitor, single point]
Cc1ccc2c(c1)nnn2C1CCN(CC(=O)Nc2ccc3c(c2)OCCO3)CC1 | inactive: 4.59% | –
CCOC(=O)C1(CCc2ccccc2)CCN(C(=O)CCc2cnn(C)c2)CC1 | – | inconclusive [inhibitor, single point]
Cc1c(NC(=O)Nc2ccccc2C(F)(F)F)sc2nc3n(c(=O)c12)CCC(C)CC3 (stereo not drawn) | – | active: 20.6 µM
Cc1ccc(C(=O)OCc2nnc(-c3ccccc3)o2)cc1S(=O)(=O)N1CCOCC1 | inactive: -2.69% | –
O=C(NCC(c1ccc(F)cc1)N1CCOCC1)c1cccnc1Sc1ccc(Cl)cc1 (stereo not drawn) | – | inconclusive [inhibitor, single point]
CCOc1ccccc1NC(=O)c1cc(SC)ccc1Cl | – | inconclusive [inhibitor, partial curve]
CCN(CC)S(=O)(=O)c1ccc(N2CCOCC2)c(NC(=O)c2cc(C)cc(C)c2)c1 | – | active: 7.31 µM
CC(C)CCNC(=O)c1cnc2sc(N3CCCCC3)nn2c1=O | – | inconclusive [inhibitor, single point]
COc1ccc(N(C(=O)c2cccc(C)c2)S(=O)(=O)c2ccc(Cl)cc2)cc1 | – | active: 18.4 µM
COc1ccc(OC)c(NC(=O)c2cc(OC(C)=O)cc(C(=O)Nc3cc(OC)ccc3OC)c2)c1 | – | inconclusive [inhibitor, single point]
O=C(CSCc1cccc(Br)c1)N=Nc1c(O)[nH]c2ccccc12 | inactive: -10.3% | –
Cc1cn([C@H](C(=O)NCCCCCCCCCCC(=O)N2CCN(C(=O)OC(C)(C)C)CC2)[C@@H](C)O)nn1 | – | active: 23.1 µM
O=C(CCc1nc(-c2cccs2)no1)Nc1cccc([N+](=O)[O-])c1 | – | inconclusive [inhibitor, single point]
CN(CC(=O)Nc1ccc(F)cc1)C(=O)c1cn(-c2ccccc2)nc1-c1cccs1 | – | inconclusive [inhibitor, single point]

SMILES | activity change, negative = growth inhibition | Potency
Cc1cccc(N2CCN(S(=O)(=O)c3ccc(Cl)nc3)CC2C)c1 (stereo not drawn) | inactive: 13.2% | –
COc1ccc2[nH]c3c(c2c1)CCN1C(=O)C(CC(=O)NC/C=C(\C)CCC=C(C)C)C[C@H](C(=O)N2CCOCC2)[C@@]31CCC1CCCC1 (stereo partly drawn) | – | active: 14.6 µM
CN(C)S(=O)(=O)c1ccc(C(=O)Nc2nnc(-c3ccc4c(c3)CCCC4)o2)cc1 | – | active: 2.91 µM
COc1ccc(CN2C(=O)c3ccccc3C2=O)cc1C(=O)OCC(=O)NC1CCCCC1 | inactive: 4.82% | –
Nc1nonc1C(=O)NCCNCc1cc(Br)ccc1OCc1ccc(F)cc1 | – | active: 10.3 µM
Cc1cccn2c(=O)c(/C=C(\C#N)c3nc4ccccc4[nH]3)c(Oc3ccc(C(C)(C)C)cc3)nc12 | inactive: 5.12% | –
CN(C)c1ccc(-c2nc3ccccc3c(=O)[nH]2)cc1 | – | inconclusive [inhibitor, single point]
COC(=O)N/N=C1/C/C(=N\NC(=O)OC)c2ccccc21 | – | inconclusive [inhibitor, single point]
CC(C)(C)c1cc(C(=O)Nc2ccc(F)cc2)n(Cc2ccc(F)cc2)n1 | – | inconclusive [inhibitor, single point]
O=C(CCS(=O)(=O)c1ccc(Br)cc1)N1CCN(c2ccc(F)cc2)CC1 | – | inconclusive [inhibitor, single point]
CCCNC(=O)c1cc(Cl)c(NC(=O)C2=C(C)OCCS2)cc1OC | – | inconclusive [inhibitor, partial curve, poor fit]
Cc1ccc2oc(-c3ccc(NC(=O)c4ccc5c(c4)OCO5)cc3)nc2c1 | – | inconclusive [inhibitor, partial curve, poor fit]
CCS(=O)CCSC(=N)N (stereo not drawn) | inactive: -18.7% | –
Cc1ccc(C)c(N2CCN(C(c3ccccc3)c3nnc(-c4ccccc4F)o3)CC2)c1 (stereo not drawn) | – | inconclusive [inhibitor, single point]
O=C(O)CN=C(Nc1cc(Cl)cc(Cl)c1)NC(c1ccccc1)c1ccccc1 | – | inconclusive [inhibitor, single point]
O=C(NCc1ccc(F)cc1)c1cc2n(n1)CCCN(Cc1ccc(F)cc1)C2=O | – | inconclusive [inhibitor, single point]
O=C(O)Cc1ccc(C(=O)c2ccccc2)s1 | inactive: 1.3% | –
CC(Nc1ccc(Cl)cc1)c1cc(Cl)ccc1O (stereo not drawn) | – | inconclusive [inhibitor, single point]
O=C(NC1CCCCC1)C(c1ccnc2ccccc12)n1c(=O)c(-c2cc3ccccc3[nH]2)nc2ccccc21 (stereo not drawn) | – | inconclusive [inhibitor, single point]
CCN(CC(=O)Nc1ccccc1OC)C(=O)c1ccc(NC(=O)c2cccs2)cc1 | – | inconclusive [inhibitor, single point]
CCC(CO)Oc1cc(NC(=O)c2ccccc2F)c2ncn(C(C)C)c2c1 (stereo not drawn) | – | inconclusive [inhibitor, single point]
Cc1c(C(=O)NCCc2ccccc2)oc2ccc(S(=O)(=O)N3CCC4(CC3)OCCO4)cc12 | – | inconclusive [inhibitor, single point]
Cc1cc(=O)[nH]c(SCC(=O)Nc2ccc(Br)cc2)c1C#N | inactive: -26.3% | –

SMILES | activity change, negative = growth inhibition | Potency
Fc1ccc(-c2csc(N3CCSCC3)n2)cc1 | inactive: 15.1% | –
O=S(=O)(c1ccc2ccccc2c1)N1CCN(C2Cc3ccccc3C2)CC1 | – | inconclusive [inhibitor, partial curve]
COC(=O)C1=CO[C@@H](O[C@@H]2O[C@H](CO)[C@@H](O)[C@H](O)[C@H]2O)C2C1C[C@H](O)[C@@H]2C (stereo partly drawn) | inactive: 6.92% | –
CCCC1=NN(C(=O)Cc2ccc(OC)cc2)C(O)(C(F)(F)F)C1 (stereo not drawn) | – | inconclusive [inhibitor, single point]
O=C(CCS(=O)(=O)c1ccccc1)NCc1ccccc1 | inactive: -12.1% | –
CCCn1c(=O)[nH]c(=O)c2c1nc(-c1ccc(OC(F)(F)C(F)C(F)(F)F)cc1)n2CCOC (stereo not drawn) | – | inconclusive [inhibitor, partial curve]
Cc1cnc(CNc2cc(-c3ccc(C(=O)N(C)C)cc3)ncn2)cn1 | inactive: 4.64% | –
COc1cccc2sc(N(CCCN(C)C)C(=O)COc3ccc(Cl)cc3)nc12 | inconclusive: -33.4% [inhibitor] | –
COC(=O)[C@H]1C[C@@H]1[C@H](N)c1ccccc1 | inactive: 0.0474% | –
Cc1cc(CC(C)C)n(-c2nc3ccccc3c(=O)n2OCC(N)=O)n1 | – | inconclusive [inhibitor, single point]
NC(=O)c1ccsc1NC(=O)CS(=O)(=O)c1ccc(F)cc1 | – | inconclusive [inhibitor, single point]
Cc1ccsc1CN(C(=O)COc1ccc(Br)cc1)C1CCS(=O)(=O)C1 (stereo not drawn) | – | inconclusive [inhibitor, single point]
COc1ccc(NC(=O)C2(C)CCCN(C(C)C)C2)cc1F (stereo not drawn) | inactive: -12.3% | –
CCOc1ccc(Sc2cc(C(=O)NC(C)c3ccccc3)c3ccccc3n2)cc1 (stereo not drawn) | – | inconclusive [inhibitor, full curve]
Cc1ccc(Cl)cc1N1CCN(Cc2nc3c(c(=O)[nH]c(=O)n3C)n2Cc2ccccc2F)CC1 | – | inconclusive [inhibitor, single point]
CCN(CC)CCNC(=O)c1ccc(NC(=O)c2cccc(S(=O)(=O)N(C)C3CCCCC3)c2)cc1 | – | inconclusive [inhibitor, single point]
CCOc1ccccc1NC(=O)Cn1cc(C(=O)c2cccc(OC)c2)c(=O)c2ccc(C)nc21 | – | inconclusive [inhibitor, single point]
COCCn1c(SCC(=O)c2ccc3c(c2)OCCO3)nnc1-c1ccoc1C | – | active: 14.6 µM
OC(c1ccc(CN2CCCCC2)cc1)c1ncc(-c2ccccc2F)[nH]1 (stereo not drawn) | inactive: 1.51% | –
CCCc1ccc(C(O)c2ncc(-c3cccc(C)c3)[nH]2)cc1 (stereo not drawn) | – | inconclusive [inhibitor, single point]
CN(Cc1c(F)cccc1Cl)C(=O)CCc1c[nH]c2ccccc12 | inconclusive: -34.4% [inhibitor] | –
Cc1cc(Nc2ccc3c(c2)OCCO3)c2cc(Cl)ccc2n1 | – | inconclusive [inhibitor, single point]
